Laboratory results: the supplement of paper PMC11417369
The other results are listed elsewhere or left out.

The sequences below were run on PfSIP2 AP2 domain 1 (GST-tagged) (assay: gcPBM binding intensity (ln(normalized median fluorescence intensity)); higher = stronger DNA binding).
In short: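 Probes on an Agilent 4 × 180k array were primer-extended, double-stranded and 36 bp long, taken from intergenic genomic regions, with negative controls added. GST-tagged P. falciparum DNA-binding domains from E. coli, about 25 μg on average, were applied to the array for 1 h in 1× PBS containing 1% milk, 0.2 mg/ml BSA, 0.5% salmon testes DNA and 0.03% Triton X-100. Binding intensity, obtained after Alexa488 anti-GST antibody detection and a 488 nm scan, is the highest Masliner-normalised natural-log median intensity across replicate spots of either probe orientation.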

Sequence | gcPBM binding intensity (ln)
TACAAACAGACATATACACACAAAAAAAAAATAAAA [CACACA_site2562] | 7.05
TTATGCAGATAAAAGAGTACATATTCGTTACATACA [XGTACX_site2849] | 7.07
TTAGTAAATACATTTGCACACATTATTTTTTAACAT [CACACA_site5448] | 7.17
GGAAATATAAAATCATGTACATATGTATATATAATT [XGTACX_site5491] | 7.01
TATATATTTTTTTCATGTACTTATTATATATATATA [XGTACX_site5321] | 8.81
ATGAATATATATATTTGTACATATGTATATATATAT [XGTACX_site7527] | 9.19
AGTATAGATGTATACACACACCAAACGTTAAAAAAA [CACACA_site7443] | 6.91
ATTTATTTATTTATATGTACTTAAATGAAAGGAATA [XGTACX_site6024] | 7.52
TTTCAAAATTTTTATTTTAAATAAACATTTATAAAA [CACACA_negctrl_site1588] | 6.9
ACATACATTTTTAAATGTACATATATATATATATAT [XGTACX_site6751] | 9.01
CCGATATAATGGAAAACACACAAAAGATATATATAT [CACACA_site2683] | 8.79
ATATGGCACATATGTACACACGTATAGATAATATTA [CACACA_site5162] | 7.13
AATATTATATGGACGTGTCCACATAAACCTATATAT [XGTACX_site2053] | 7.07
CATTATGTTGTAAATACACACATACAGATACATACA [CACACA_site4565] | 7.1
TAAAGGCAAACAAACACACACACATAAATACAGATA [CACACA_site5204] | 7.01
ATATGCGTTTGCAAATGTACATATTATTTATATATA [XGTACX_site7128] | 7.11
TTTTTTGGTTTTCATGCACACAATTTATAAATCTAT [CACACA_site3106] | 8.65
ATAATTCTTTTACTGTGTACATATTATCACTTATTT [XGTACX_site2456] | 7.42
TGTAATTGTTTAAAGGGTACATATATCAGATGTCTT [XGTACX_site5877] | 6.96
TTTTGTTTTTGTAGAGTGCATAAAGAAGATATGTAT | 8.46
TGGAAACAATGACACACACACAAAAAAAAAAAAAAA [CACACA_site7494] | 6.96
ATAATAATATTTCTATGTACTTATTTTATGTATTAG [XGTACX_site1747] | 6.99

Sequence | gcPBM binding intensity (ln)
TATAAATACTTAGAAACACACAAAAATATTTTATAA [CACACA_site7259] | 6.84
AAAAATTAAAATATAACTAATTAATTTGTATTCATT [CACACA_negctrl_site1633] | 6.56
GTAGGGGAAAAAAAAACACACAAAAAACAACAGATC [CACACA_site1187] | 7.26
TTATCTCTACAAAGTGCACACACGTAAAAACATATA [CACACA_site3957] | 10.4
TTTTTATATTTCAACATATCACAATTTTATATATCT [CACACA_negctrl_site178] | 7.04
ATATATATATTATATGCACACTTATATTTCATTAGA [CACACA_site5439] | 8.27
TATTTATAAATGAACACACACGCAATTTGAATCGAA [CACACA_site3371] | 7.32
AACACATACAGATATGCACACATTTTATTCCATTAT [CACACA_site5565] | 7.45
CTATATCATTTTCTAGCACACACATTGTTATTACCT [CACACA_site8204] | 7.13
GAATATAAACCTATTACACACATCTATATGTACATT [CACACA_site1914] | 7.04
TTTTTTATGCTAACTTCTTTTTCCTTATAAAATTGG [TGCATGCA_negctrl_site598] | 7.06
ATTTTTTTTATTATTACACACATATAACAAAAAAAT [CACACA_site6934] | 7.32
AAAAAGAAAAAATATATTCGTCTATTATAAACAATA [CACACA_negctrl_site648] | 6.64
TAAATATTAACAATCGCACACATATTATTTTTCCAA [CACACA_site1626] | 6.97
AAGGTAAACAGACACACACACATACAAAAAAAAAAA [CACACA_site3768] | 7.18
GAATATATATTCATATGTACACAATTTATGTATTAT [XGTACX_site4719] | 7.06
TAAATATATATATACACACACACCAAAGCAATAGAT [CACACA_site2940] | 7.19
ATTAAATATGTCAAGTGTACAAAATGTAAAAAAAAA [XGTACX_site4119] | 7.07
TTATATATACCTAAGACACACACATATATATATATA [CACACA_site8153] | 9.25
GCCATTGTACCATCCACACACATATAAATATGTATA [CACACA_site7303] | 7.68
TATGAAGAAAAGAATTGTACGATGTTTATTTTGTAT [XGTACX_site8614] | 6.96
TGTTAATAGAAATACGTGCACACTAAAGGGAAAACA [CACACA_site1485] | 9.99

Sequence | gcPBM binding intensity (ln)
TTGTTATCTACCTGTAGTACATATATTATGTAATAT [XGTACX_site735] | 7.03
TATATAACATATAACACACATACTTAGTATTACATA [CACACA_site3099] | 7
ACAGTATCAATATGGATAAAAATGTCCATATGCCTG [TGCATGCA_negctrl_site482] | 6.59
TACGAAAAAAAAAAAAAAAAAAAAAAACACAAAAAA [CACACA_negctrl_site1643] | 6.8
AATACCATAATCAATGCACACATAACAAAATATTAT [CACACA_site8873] | 7.38
TTTTTATATTTTATAGTGCAAAAACTTACATAAAAT | 8.18
ATATAATGGACCATAGTGCATAAAAATAACAAAAAA [GTGCAC_site9558] | 8.3
TGGAAATATATATATATATATACATATATATATAGC [XGTACX_negctrl_site107] | 7.5
TTTTAATATTTTAAGAGTACAGAAATATATAATATG [XGTACX_site4955] | 7.21
ATTTTATAACATTCATGTACACATTTCATTTATTTG [XGTACX_site3028] | 7.26
CATATAAATATATATACACACACACCGTAATACATA [CACACA_site9158] | 7.16
AGAGACACTTTTTATTGTACAAGAGGAGGTTACCTT [XGTACX_site8768] | 6.61
TTTTTTTTTAAATATACACACACATTTATACATATA [CACACA_site9122] | 6.96
TTTGGAATATAATATTGTACATATTATATATATATA [XGTACX_site3187] | 8.71
TTCTATTATGTGACTCAATTCTTCATGGGTGTATAA [TGCATGCA_negctrl_site140] | 7.18
AATGTATTTATTTTTTGTACATATCGTGTGTGTATT [XGTACX_site1009] | 7.17
TTATTTATTTTTATATGTACACAAAAAAAAAAAAAA [XGTACX_site1459] | 7.13
AATATATATAACGTTGGTACACAAAAATTATTAAAT [XGTACX_site8572] | 7.32
CCTCATCCACTATGCACACAAAAAAGAAATACACTA [CACACA_site3422] | 7.72
TTTTTTTTTTTTTTAACACACATATATATATTTTTC [CACACA_site1922] | 6.9
TAATGGATTATACGTGCACACATATATACAAATAAA [CACACA_site8116] | 10.5
TTCTTCAATAATAAGTGTACATATGCATACATTATA [XGTACX_site1502] | 7

Sequence | gcPBM binding intensity (ln)
ATAATAAAATAAGAAGCACACAAATATTATATATAA [CACACA_site9319] | 6.98
AATTAAAAAATTTATGCACACTTTAAAAAAAAAAAA [CACACA_site5962] | 7.62
ATATTAATTTCTTATGCATGTTCTACCAAATTGTAT [TGCATGCA_site38] | 6.97
AAAAAAAATAAAAATAGTACTCAAAAAATTATGAAT [XGTACX_site3073] | 6.87
GATATGATATGATATGCATGTAACAAATTTTTTTAA [TGCATGCA_site268] | 7.59
AAAAAAAAATATATATATATATATATATTTATGTAT [GTGCAC_negctrl_site483] | 7.46
AATTATTCTCTTTTCATTTGAACAATATGCTTAAAA [CACACA_negctrl_site995] | 6.99
AATATTTTTTAAATGTGTACATAGGTATAGCACACA [XGTACX_site8690] | 7.1
AGTCATATAAATAGTAGTACTGTGTGTGAAGAAAAA [XGTACX_site5056] | 7.42
ACACATTCGAAAAATTGTACATATATAACAGAATAT [XGTACX_site7106] | 7
ACAAATATGAGAAATTGTACATATAATAAAATAGTA [XGTACX_site2573] | 6.93
GACTGCACTTTAAGCACACAAATATATTTTTTTTAT [CACACA_site1249] | 8.41
ATCAAATTTGGACATGCATGTGTGTGTAAAACCATG [TGCATGCA_site309] | 7.23
ATATTAGTCGAATGATGTACACACATACAAAACATT [XGTACX_site8613] | 7.17
TCTACAAGGCTTGATCGTACAATTTGAATGTATTTG [XGTACX_site7698] | 6.68
CTCAACATATACGTAACACACATATATATATATATA [CACACA_site3838] | 9.27
AAAATAACGAGTCAAACACACATATATATATATATA [CACACA_site2039] | 9.54
TATATATATATATACACACACACAAAAAAAAAAAAA [CACACA_site1505] | 9.28
AGCATAAACAATTTTTGAAAAAATATACACTCATAG [CACACA_negctrl_site890] | 7.04
TATGCAAGGAACCACACACACACACCCAAATGTATA [CACACA_site750] | 7.17
AGATTATATATATGTATATATGTATATATTTATATA [CACACA_negctrl_site1797] | 6.87
TATCTCTCTTTCTGCTGTACATAAAAATTATATAAT [XGTACX_site5961] | 7.54
